# Measurements: the antibiotic and cytotoxicity screens of Wong et al. (2023)
# The other results are listed elsewhere or left out.
# What was measured:
# HSkMC = human skeletal muscle cells; assay: cytotoxicity call (relative viability < 0.9); conditions: 10 µM
# HepG2 = assay: cytotoxicity call (relative viability < 0.9); conditions: 10 µM
# S. aureus RN4220 = assay: growth inhibition call (relative growth <= 0.2); conditions: 50 µM
SMILES,cytotoxicity call (HSkMC),cytotoxicity call (HepG2),growth inhibition call (S. aureus RN4220)
CO[C@@H]1CN(C)C(=O)c2cc(NS(C)(=O)=O)ccc2OC[C@@H](C)N(C(=O)CN(C)C)C[C@@H]1C,inactive,inactive,inactive
COc1ccc2c3c([nH]c2c1)[C@@H](CO)N(C[C@]13CCN(CCc2ccccc2)CC1)C(=O)CN1CCOCC1,inactive,inactive,inactive
Cc1noc(C)c1NC(=O)Nc1ccc2c(c1)C(=O)N([C@H](C)CO)C[C@H](C)[C@H](CN(C)S(=O)(=O)c1ccccc1)O2,inactive,inactive,inactive
Cn1cnc(CCNC(=O)C[C@H]2CC[C@H]3[C@@H](COC[C@H](O)CN3C(=O)Nc3ccc(Cl)cc3)O2)c1,inactive,inactive,inactive
COc1ccc([C@@H]2CC=CC[C@@H](C)Oc3ccccc3C(=O)N(C)[C@H](Cc3ccccc3)C(=O)N2)c(OC)c1,inactive,inactive,inactive
CC(C)NC(=O)N(C)C[C@@H]1Oc2cc(C#Cc3ccc(F)cc3)ccc2S(=O)(=O)N([C@H](C)CO)C[C@H]1C,inactive,inactive,inactive
O=C(C[C@H]1C=C[C@@H](NC(=O)CN2CCOCC2)[C@@H](CO)O1)NCCc1ccncc1,inactive,inactive,inactive
COc1ccc(CN(C)C[C@@H]2OCCCC[C@H](C)Oc3ccc(NC(=O)c4ccncc4)cc3C(=O)N([C@H](C)CO)C[C@H]2C)cc1,inactive,inactive,inactive
Nc1nc(N)nc(-c2cc(Cl)ccc2Cl)n1.O=C(O)C=CC(=O)O,inactive,inactive,inactive
COc1ccc(CN(C)C[C@H]2OCCCC[C@H](C)Oc3ccc(NS(=O)(=O)c4ccc(C)cc4)cc3C(=O)N([C@@H](C)CO)C[C@@H]2C)cc1,inactive,inactive,inactive
CC(=O)NCC(=O)N1CCC2(CC1)CN(c1cccnc1)C(=O)CO2,inactive,inactive,inactive
C=CC(=O)N[C@H]1CCCN(CC)C1,inactive,inactive,inactive
O=C(CN1CCS(=O)(=O)CC1)NS(=O)(=O)c1ccccc1,inactive,inactive,inactive
C[C@H]1CN([C@@H](C)CO)C(=O)Cc2cc(NC(=O)NC3CCCCC3)ccc2O[C@@H]1CN(C)C(=O)Nc1ccc(C(F)(F)F)cc1,inactive,inactive,inactive
O=C1CCc2cc(OCCCCc3nnnn3C3CCCCC3)ccc2N1,inactive,inactive,inactive
CCOC(=O)[C@H]1[C@@H]2[C@@H](Cc3ccccc3N)[C@@H](C(=O)OCC)N(c3ccc(OC)cc3)C(=O)[C@@]23C=C[C@@H]1O3,inactive,inactive,inactive
Cc1noc(C)c1NC(=O)N(C)C[C@@H]1Oc2ncc(C#CC(C)(C)O)cc2C(=O)N([C@H](C)CO)C[C@@H]1C,inactive,inactive,inactive
C[C@@H]1CCCCO[C@H](CN(C)C(=O)Nc2ccccc2)[C@H](C)CN([C@H](C)CO)C(=O)c2cc(NC(=O)c3ccccc3)ccc2O1,inactive,inactive,inactive
CC(C)NC(=O)Nc1ccc2c(c1)C(=O)N([C@H](C)CO)C[C@@H](C)[C@H](CN(C)Cc1ccc(-c3ccccc3)cc1)O2,inactive,inactive,inactive
C[C@@H]1CCN(C(=O)[C@H](CCCNC(=N)N)NS(=O)(=O)c2cccc3c2NC[C@H](C)C3)[C@@H](C(=O)O)C1,inactive,inactive,inactive
Cl.Cl.OCCOCCN1CCN(C(c2ccccc2)c2ccc(Cl)cc2)CC1 (centres undefined),inactive,inactive,inactive
Nc1ccon1,inactive,inactive,inactive
COC(=O)Nc1nc2ccc(S(=O)c3ccccc3)cc2[nH]1 (centres undefined),inactive,active,inactive
COCC#Cc1ccc2c(c1)O[C@@H](CN(C)S(C)(=O)=O)[C@@H](C)CN([C@H](C)CO)S2(=O)=O,inactive,inactive,inactive
C[C@@H]1CCCCO[C@@H](CN(C)C(=O)CCC(F)(F)F)[C@@H](C)CN([C@H](C)CO)C(=O)c2cc(NC(=O)C3CCCCC3)ccc2O1,inactive,inactive,inactive
O=C(C[C@@H]1C=C[C@H](NC(=O)c2cccnc2)[C@@H](CO)O1)NCCN1CCCCC1,inactive,inactive,inactive
C[C@H]1CN([C@@H](C)CO)C(=O)Cc2cc(NC(=O)c3ccncc3)ccc2O[C@@H]1CN(C)S(=O)(=O)c1cn(C)cn1,inactive,inactive,inactive
C[C@@H]1CN([C@@H](C)CO)S(=O)(=O)c2ccc(C#CC3CC3)cc2O[C@H]1CN(C)C(=O)c1cccc(F)c1,inactive,inactive,inactive
